This passage reports binding results from article PMC8600046.

Results are given in words; binding and its absence hold for the method and conditions named. Binding seen in cells or lysates may run through a third protein. Some binding calls cover weakened binding; strength is not graded here.

One assay addresses T1, PEX12 (UniProt O00623).
T1 sequence: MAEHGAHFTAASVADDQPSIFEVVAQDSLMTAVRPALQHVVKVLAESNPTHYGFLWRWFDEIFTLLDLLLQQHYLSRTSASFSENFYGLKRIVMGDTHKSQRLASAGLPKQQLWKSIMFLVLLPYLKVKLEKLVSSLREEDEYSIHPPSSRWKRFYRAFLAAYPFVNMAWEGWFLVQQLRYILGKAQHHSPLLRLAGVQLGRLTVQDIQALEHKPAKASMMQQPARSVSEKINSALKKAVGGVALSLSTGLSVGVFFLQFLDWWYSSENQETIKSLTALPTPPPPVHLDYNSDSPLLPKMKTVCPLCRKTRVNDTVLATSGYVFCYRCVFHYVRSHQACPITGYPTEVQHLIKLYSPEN
Kind of assay: FRET or BRET; BRET in living HEK293 cells co-transfected with Rluc (donor) and YFP (acceptor) fusions, acceptor to donor ratio 3:1; read 48 h later with coelenterazine 30 μM; all eight combinations of N- or C-terminal fusions tested in duplicates; interaction assumed if at least one combination gave a BRET ratio above the threshold of 0.094. (In BRET a luciferase serves as donor, and the signal depends on an acceptor being close.)

The target in the next assay is T2, PXMP4 (UniProt Q9Y6I8).
T2 sequence: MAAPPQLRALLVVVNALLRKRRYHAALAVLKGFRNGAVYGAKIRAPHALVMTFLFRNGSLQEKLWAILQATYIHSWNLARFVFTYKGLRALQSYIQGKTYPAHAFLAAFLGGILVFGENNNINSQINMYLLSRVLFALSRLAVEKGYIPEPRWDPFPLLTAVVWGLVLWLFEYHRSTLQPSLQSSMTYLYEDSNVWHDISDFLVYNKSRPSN
The description is as above.

B1: peroxisome biogenesis factor 26 (PEX26) wild-type (protein, UniProt Q7Z412-1 1-305)
chain: MKSDSSTSAAPLRGLGGPLRSSEPVRAVPARAPAVDLLEEAADLLVVHLDFRAALETCERAWQSLANHAVAEEPAGTSLEVKCSLCVVGIQALAEMDRWQEVLSWVLQYYQVPEKLPPKVLELCILLYSKMQEPGAVLDVVGAWLQDPANQNLPEYGALAEFHVQRVLLPLGCLSEAEELVVGSAAFGEERRLDVLQAIHTARQQQKQEHSGSEEAQKPNLEGSVSHKFLSLPMLVRQLWDSAVSHFFSLPFKKSLLAALILCLLVVRFDPASPSSLHFLYKLAQLFRWIRKAAFSRLYQLRIRD
Consider B1, for which the binding entry in the assay with PEX12 and in the assay with PXMP4 was “binds” each time.

B2: PEX26 p.Pro117Leu (protein, UniProt Q7Z412-1 1-305)
chain: MKSDSSTSAAPLRGLGGPLRSSEPVRAVPARAPAVDLLEEAADLLVVHLDFRAALETCERAWQSLANHAVAEEPAGTSLEVKCSLCVVGIQALAEMDRWQEVLSWVLQYYQVPEKLLPKVLELCILLYSKMQEPGAVLDVVGAWLQDPANQNLPEYGALAEFHVQRVLLPLGCLSEAEELVVGSAAFGEERRLDVLQAIHTARQQQKQEHSGSEEAQKPNLEGSVSHKFLSLPMLVRQLWDSAVSHFFSLPFKKSLLAALILCLLVVRFDPASPSSLHFLYKLAQLFRWIRKAAFSRLYQLRIRD
For B2, the results for the binding entry in the assay with PEX12 and in the assay with PXMP4 were “no binding” and “binds”, respectively.

B3: PEX26 p.Leu153Val (protein, UniProt Q7Z412-1 1-305)
chain: MKSDSSTSAAPLRGLGGPLRSSEPVRAVPARAPAVDLLEEAADLLVVHLDFRAALETCERAWQSLANHAVAEEPAGTSLEVKCSLCVVGIQALAEMDRWQEVLSWVLQYYQVPEKLPPKVLELCILLYSKMQEPGAVLDVVGAWLQDPANQNVPEYGALAEFHVQRVLLPLGCLSEAEELVVGSAAFGEERRLDVLQAIHTARQQQKQEHSGSEEAQKPNLEGSVSHKFLSLPMLVRQLWDSAVSHFFSLPFKKSLLAALILCLLVVRFDPASPSSLHFLYKLAQLFRWIRKAAFSRLYQLRIRD
In the case of B3, the figures for the binding entry with PEX12 and with PXMP4 were “binds” and “no binding”, respectively.
